Experimental data published in PubChem BioAssay AID1645852 (National Center for Advancing Translational Sciences (NCATS), 2021).
The campaign covered roughly 1,200 compounds. About 160 (13%) were called active. The inconclusive results got no clear call from the source; some entries with a clear call stand among them for comparison. Calls follow the shape of the dose curve; as a rule, active = well fitted inhibition curve with a large enough effect; inconclusive = small, poorly fitted or top-dose-only effect; inactive = no such curve, though single readings can be large or run the other way. A potency beside an inconclusive call is a rough fit, not a confirmed value.
Also: nearly all actives have a fitted effect of over 65% in size.
Potency is read from the fitted curve at half-maximal effect; tags tell the direction and shape of the fitted curve.

These compounds were tested against Inositol hexakisphosphate kinase 1 (Homo sapiens) (UniProt Q92551) (assay: Confirmatory qHTS assay for small molecule inhibitors of Inositol hexaphosphate kinase 1 (IP6K1)). Details: recombinant IP6K1 kinase, ADP-Glo luminescence, 2 h; series mostly up to 49 µM.
Chain of UniProt Q92551 (Q92551 whole entry, looked up): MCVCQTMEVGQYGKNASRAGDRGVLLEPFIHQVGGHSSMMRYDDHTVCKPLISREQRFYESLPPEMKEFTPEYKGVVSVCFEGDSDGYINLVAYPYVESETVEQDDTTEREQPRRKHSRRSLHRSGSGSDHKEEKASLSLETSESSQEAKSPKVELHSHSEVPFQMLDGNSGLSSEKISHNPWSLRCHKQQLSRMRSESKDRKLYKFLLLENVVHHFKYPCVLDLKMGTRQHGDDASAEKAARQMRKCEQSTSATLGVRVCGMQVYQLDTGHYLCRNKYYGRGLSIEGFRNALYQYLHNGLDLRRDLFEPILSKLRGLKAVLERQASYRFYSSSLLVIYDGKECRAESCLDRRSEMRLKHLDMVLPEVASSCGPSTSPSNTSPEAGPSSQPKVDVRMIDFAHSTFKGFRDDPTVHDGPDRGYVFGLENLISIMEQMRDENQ
Procedure, shortened: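 Compounds go into an ATP/IP6 mixture dispensed at 1.3 mM and 130 uM. IP6K1 is added, the reaction runs 2 hr at room temperature, and ADP produced is quantified by ADP-Glo Max luminescence.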
For `CN1CCN(c2cc(=O)c3ccnc(N4CCN(c5ccccn5)CC4)c3o2)CC1`, the Potency was “inactive”.
In the case of `O=C(O)c1ccc(Nc2ncc3c(n2)-c2ccc(Cl)cc2C(c2c(F)cccc2F)=NC3)cc1`, the Potency is reported as active: 10.3 µM.
`Cc1cc(N2CCOCC2)ccc1Nc1nc(NC2CCCCC2)c2[nH]cnc2n1` was tested, and the Potency was active: 2.06 µM.
With `C#C[C@]1(O)CC[C@H]2[C@@H]3CCc4cc(OC)ccc4[C@H]3CC[C@@]21C` the Potency was inconclusive: 1.16 µM [inhibitor, full curve].
With `CCOc1cc(CNc2ccc(O)cc2)cc(Br)c1OCc1ccccc1` the Potency was inconclusive: 29.1 µM [inhibitor, partial curve, poor fit].
For `Cn1cc(-c2cnc3[nH]cc(CC(=O)Nc4ccccc4Cl)c3c2)cn1`, the Potency was inconclusive: 21.1 µM [inhibitor, partial curve, poor fit].
With `COc1cccc(-c2cnc3[nH]cc(CC(=O)NCc4cccnc4)c3c2)c1` the Potency was inconclusive: 33.5 µM [inhibitor, partial curve].
`Nc1c(S(=O)(=O)O)cc(Nc2ccc(Nc3nc(Cl)nc(Nc4ccc(S(=O)(=O)O)cc4)n3)c(S(=O)(=O)O)c2)c2c1C(=O)c1ccccc1C2=O` was tested, and the Potency was active: 2.91 µM.
In the case of `Oc1ccc(Nc2nc(-c3ccc(Cl)cc3)cs2)cc1`, the Potency is reported as inconclusive: 6.51 µM [inhibitor, partial curve].
For `CCOc1ccc(NC(=O)c2cc(-c3ccc[nH]3)n[nH]2)cc1`, the Potency was “inactive”.
In the case of `Fc1cccc(CNc2nc(-c3ccccc3C(F)(F)F)nc3ccccc23)c1`, the Potency is reported as “inactive”.
With `CCc1oc2ccccc2c1C(=O)c1cc(I)c(O)c(I)c1` the Potency was active: 3.55 µM.
In the case of `Cc1cc(NC(=O)c2cccc(NC(=O)/C=C/CN(C)C)c2)ccc1Nc1nccc(-c2cccnc2)n1`, the Potency is reported as inconclusive: 10.3 µM [inhibitor, partial curve].
`CCOc1ccc(C2c3c(oc4ccccc4c3=O)C(=O)N2c2nnc(C)s2)cc1OC` (configuration not stated) was tested, and the Potency was “inactive”.
With `O=C(O)Cn1nnc(-c2ccc(OCc3cccc(C(F)(F)F)c3)cc2)n1` the Potency was inconclusive: 14.6 µM [inhibitor, partial curve, poor fit].
`CCOc1ccc(-c2cc(C(=O)Nc3ccc(NC(C)=O)cc3)no2)cc1` was tested, and the Potency was “inactive”.
In the case of `O=C(O)CCCNc1cc(N2CCN(C3CCCCC3)CC2)c2noc3c2c1C(=O)c1ccccc1-3`, the Potency is reported as inconclusive: 10.3 µM [inhibitor, partial curve, poor fit].
For `COc1ccc(-c2cc(C(=O)NCc3c(C)cc(C)[nH]c3=O)c3c(c2)N(C(C)C)CCO3)cc1OC`, the Potency was inconclusive: 14.6 µM [inhibitor, partial curve, poor fit].
`NC(=O)Cc1c[nH]c2ncc(-c3cccc(CO)c3)cc12` was tested, and the Potency was inconclusive: 22.4 µM [inhibitor, partial curve].
With `Cc1ccc(-c2ccc(=O)n(CCC(=O)NCCc3ccccc3)n2)cc1` the Potency was “inactive”.
With `O=C(Nc1ncc([N+](=O)[O-])s1)c1ccccc1O` the Potency was inconclusive: 5.8 µM [inhibitor, partial curve].
For `Cc1ccccc1C(=O)Nc1cccc(-c2nc3cccnc3s2)c1`, the Potency was inconclusive: 1.3 µM [inhibitor, full curve].
With `CCc1nnc(NS(=O)(=O)c2ccc(NC(=S)NC(=O)/C=C/c3ccc(F)cc3)cc2)s1` the Potency was active: 20.6 µM.
In the case of `Clc1ccc(-c2cc3c(cn2)CN(Cc2ccncc2)CCN3)cc1`, the Potency is reported as “inactive”.
`Brc1c(Br)c(Br)c2n[nH]nc2c1Br` was tested, and the Potency was active: 0.731 µM.
In the case of `COC(=O)CSc1nc2c(cnn2-c2ccc(F)cc2)c(=O)[nH]1`, the Potency is reported as inconclusive: 10.3 µM [inhibitor, partial curve].
`Cc1ccc(C)c(N2CCN(c3ccc(NC(=O)c4cccs4)cc3C(=O)O)CC2)c1` was tested, and the Potency was inconclusive: 9.2 µM [inhibitor, partial curve].
In the case of `O=C(Cc1c[nH]c2ncc(-c3ccc(F)c(Cl)c3)cc12)NCc1cccnc1`, the Potency is reported as inconclusive: 21.1 µM [inhibitor, partial curve, poor fit].
In the case of `COc1ccc(-c2ccc(C(=O)N(C)C)c(Cl)c2)nn1`, the Potency is reported as inconclusive: 29.8 µM [inhibitor, partial curve].
With `O=C(NCc1cccnc1)c1cc(-c2ccccc2F)cc2c1OCCN2Cc1cccnc1` the Potency was inconclusive: 9.2 µM [inhibitor, partial curve, poor fit].
For `COc1ccc(CN2C[C@H]3CN(Cc4cnn(C)c4)CCN3C2=O)cc1`, the Potency was inconclusive: 37.5 µM [inhibitor, single point].
`NC(=O)N1CCC(CC(=O)N2CCC(C3c4ncc(Br)cc4CCc4cc(Cl)cc(Br)c43)CC2)CC1` (configuration not stated) was tested, and the Potency was inconclusive: 5.17 µM [inhibitor, partial curve].
With `COCCN(Cc1cccs1)S(=O)(=O)c1cc(-c2cc(C)no2)ccc1C` the Potency was inconclusive: 20.6 µM [inhibitor, partial curve, poor fit].
In the case of `CCOc1ccc(-c2cc(C(=O)Oc3ccc(C#N)cc3)no2)cc1`, the Potency is reported as inconclusive: 23.1 µM [inhibitor, partial curve, poor fit].
For `CCc1nnc(NC(=O)c2nc(S(=O)(=O)Cc3ccc(C)cc3)ncc2Cl)s1`, the Potency was “inactive”.
In the case of `C[C@]12CC[C@H](O)CC1=CCC1C2CC[C@]2(C)C(n3cnc4ccccc43)=CCC12` (some centres not stated), the Potency is reported as inconclusive: 2.31 µM [inhibitor, full curve].
`CCc1ccc(-n2c(=O)c3c4c(sc3n(Cc3ccc(F)cc3)c2=O)CCCC4)cc1` was tested, and the Potency was “inactive”.
`COc1cccc2c1cc1c(=O)n(CC(=O)N3CCN(c4cccc(C)c4C)CC3)nc(C)n12` was tested, and the Potency was “inactive”.
`Cc1ccc(NCc2cccn2-c2nnc(N3CCC(C(=O)NCCc4ccc(Cl)cc4)CC3)s2)cc1` was tested, and the Potency was “inactive”.
For `NC(=O)Cc1c[nH]c2ncc(-c3ccc(Oc4ccccc4)cc3)cc12`, the Potency was inconclusive: 14.9 µM [inhibitor, partial curve].
For `CCn1cc(-c2ccc(C)cc2)cc1C(=O)N1CCC(C)CC1`, the Potency was inconclusive: 23.1 µM [inhibitor, partial curve].
In the case of `O=c1cc(-c2ccc(O)cc2)oc2cc(O)cc(O)c12`, the Potency is reported as active: 1.46 µM.
`Cc1ccc(CCNC(=O)CCn2nc(-c3ccc(Cl)cc3)ccc2=O)cc1` was tested, and the Potency was “inactive”.
With `NC(=O)Cc1c[nH]c2ncc(-c3cccc(O)c3)cc12` the Potency was inconclusive: 31.6 µM [inhibitor, partial curve].
In the case of `Cc1ccc(S(=O)(=O)c2nc(-c3ccco3)oc2SCc2ccc(F)cc2)cc1`, the Potency is reported as “inactive”.
`CCCCN(Cc1ccccc1)S(=O)(=O)c1cc(Br)cc2c1N(C(C)=O)CC2` was tested, and the Potency was “inactive”.
With `NC(=O)Cc1c[nH]c2ncc(-c3cccc(F)c3)cc12` the Potency was inconclusive: 35.5 µM [inhibitor, partial curve].
`CO/N=C(\C(=O)N[C@@H]1C(=O)N2C(C(=O)O)=C(CSc3nc(=O)c(O)nn3C)CS[C@H]12)c1csc(N)n1` was tested, and the Potency was inconclusive: 20.6 µM [inhibitor, single point].
For `COc1ccc(-c2ccc(C(=O)N3CCCCC3)cc2)nn1`, the Potency was inconclusive: 14.9 µM [inhibitor, partial curve].
`O=C(Nc1ccc(N2CCC(N3CCCCC3)CC2)c(C(=O)O)c1)c1ccc(Br)cc1` was tested, and the Potency was inconclusive: 4.61 µM [inhibitor, partial curve].
In the case of `OCCCNc1cc(-c2ccnc(Nc3cccc(Cl)c3)n2)ccn1`, the Potency is reported as inconclusive: 23.1 µM [inhibitor, partial curve].
In the case of `COc1cccc(-c2ccc(NC(=O)C3=C(C(=O)O)CCC3)c(F)c2)c1`, the Potency is reported as inconclusive: 9.2 µM [inhibitor, partial curve].
With `COc1ncccc1-c1cnc2[nH]cc(CC(N)=O)c2c1` the Potency was inconclusive: 15.8 µM [inhibitor, partial curve].
For `CN(C)C(=O)c1ccc2oc(-c3ccnc(Cl)c3)nc2c1`, the Potency was inconclusive: 14.6 µM [inhibitor, partial curve].
`CC(=O)Nc1cccc(-c2nnc(SCC(=O)c3cc([N+](=O)[O-])ccc3Cl)o2)c1` was tested, and the Potency was inconclusive: 11.6 µM [inhibitor, partial curve].
For `CCOc1ccc(CNC(=O)C2CCCN(c3nn4cc(-c5ccc(OC)cc5)nc4s3)C2)cc1` (configuration not stated), the Potency was inconclusive: 5.8 µM [inhibitor, partial curve].
For `COc1ccc(C(=O)N(Cc2cc(OC)c(OC)c(OC)c2)CC2CCCO2)cc1` (configuration not stated), the Potency was “inactive”.
With `O=C(NCCc1ccccn1)c1ccnc(-c2nnc3ccc(Nc4ccccc4)nn23)c1` the Potency was inconclusive: 14.9 µM [inhibitor, partial curve].
With `COc1ccc(N2CCN(CC(O)COc3ccccc3C(C)(C)C)CC2)cc1` (configuration not stated) the Potency was inconclusive: 23.1 µM [inhibitor, single point].
`COc1ccc2ncc3c(-c4ccc(C)c(C)c4)nn(CC(=O)NC4CCCC4)c3c2c1` was tested, and the Potency was “inactive”.
With `NC(=O)c1cc(-c2ccccc2F)cc2c1OCCN2Cc1cccnc1` the Potency was inconclusive: 47.3 µM [inhibitor, single point].
For `O=C(Nc1ccc(Cl)cc1)N1CCN(c2ccc3nnc(-c4ccccc4)n3n2)CC1`, the Potency was inconclusive: 2.31 µM [inhibitor, partial curve].
With `O=C1C(N2CCN(Cc3ccc[nH]3)CC2)CCN1Cc1ccccn1` (configuration not stated) the Potency was “inactive”.
With `CCC(=O)c1c(O)cc(O)cc1O` the Potency was inconclusive: 16.4 µM [inhibitor, partial curve].
For `CCN1/C(=C/C=C/c2sc3ccccc3[n+]2CC)Sc2ccccc21`, the Potency was inconclusive: 8.2 µM [inhibitor, partial curve].
In the case of `Cc1cc(C)c(/C=C2\C(=O)Nc3ccccc32)[nH]1`, the Potency is reported as “inactive”.
For `O=C(NCCc1ccc(F)cc1)C(=O)NCC(c1cccs1)S(=O)(=O)c1ccccc1` (configuration not stated), the Potency was “inactive”.
